From the supplement of paper PMC7238544
Counter-ions that a name gives are not always drawn. ± gives the standard deviation of the averaged measurements. The list shows a part of the results.

How the values were obtained:
Conditions in all cases: priming compound concentration 100 µM
[1] = tested on: hAMSC donor 1; test: Hoechst total cell count ratio vs vehicle control; higher = more cells (less toxicity)
[2] = tested on: hAMSC donor 2; test: as above
[3] = tested on: hAMSC donor 1; test: transgenic luciferase activity (RLU/mg protein) fold change vs vehicle control (ratio); higher = more transgene expression
[4] = tested on: hAMSC donor 2; test: as above
[5] = tested on: hAMSC donor 1; test: transfection efficiency (EGFP+ cells / Hoechst count) fold change vs vehicle control (ratio); hAMSC are human adipose-derived mesenchymal stem cells given an EGFP-luciferase plasmid by lipofection; higher = enhanced transfection
[6] = tested on: hAMSC donor 2; test: as above
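For Hoechst total cell count ratio vs vehicle control in this document: compound added 30 min before Lipofectamine 3000 lipoplex delivery, triplicate-well means expressed against DMSO vehicle control wells of the same 96-well plate.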
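For transfection efficiency (EGFP+ cells / Hoechst count) fold change vs vehicle control in this document: compounds added 30 min before Lipofectamine 3000 lipoplex transfection, triplicate means relative to DMSO vehicle wells on the same plate, luciferase RLU normalized to BCA total protein.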
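For transgenic luciferase activity (RLU/mg protein) fold change vs vehicle control in this document: compounds in DMSO added 30 min before Lipofectamine 3000 transfection of pEGFP-Luc in 96-well plates, values are means of triplicate wells over DMSO vehicle wells on the same plate.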

| SMILES | Hoechst total cell count ratio [1] | Hoechst total cell count ratio [2] | transgenic luciferase activity [3] | transgenic luciferase activity [4] | transfection efficiency [5] | transfection efficiency [6] |
| --- | --- | --- | --- | --- | --- | --- |
| CN(C)CCCN1c2ccccc2Sc2ccc(Cl)cc21 [Chlorpromazine hydrochloride] | 0.105 ± 0.053 | 0.0663 ± 0.014 | 0.00788 ± 0.0036 | 0.000215 ± 4.2e-05 | 1.65 ± 1.3 | 0.28 ± 0.069 |
| CC(=O)OCC(CCn1cnc2cnc(N)nc21)COC(C)=O [Famciclovir] | 1.2 ± 0.26 | 1.13 ± 0.18 | 1.67 ± 0.71 | 0.381 ± 0.064 | 0.999 ± 0.15 | 0.931 ± 0.2 |
| CC[N+](C)(CC)CCOC(=O)C(O)(c1ccccc1)C1CCCCC1 (centres undefined) [Oxyphenonium bromide] | 1.57 ± 0.31 | 0.976 ± 0.018 | 0.422 ± 0.032 | 0.655 ± 0.21 | 1.17 ± 0.07 | 0.902 ± 0.11 |
| C[C@@](Cc1ccc(O)c(O)c1)(NN)C(=O)O [Carbidopa] | 1.1 ± 0.016 | 1.14 ± 0.59 | 0.779 ± 0.21 | 1.06 ± 0.27 | 1.58 ± 0.15 | 0.981 ± 0.2 |
| CC(=O)SCC(Cc1ccccc1)C(=O)NCC(=O)OCc1ccccc1 (centres undefined) [Racecadotril] | 1.12 ± 0.13 | 1.84 ± 0.52 | 0.507 ± 0.22 | 0.725 ± 0.49 | 0.609 ± 0.18 | 0.836 ± 0.35 |
| NCc1ccc(S(N)(=O)=O)cc1 [Mafenide acetate] | 1.11 ± 0.099 | 1.71 ± 0.045 | 1.19 ± 0.18 | 0.696 ± 0.1 | 1.14 ± 0.35 | 1.03 ± 0.075 |
| COc1ccnc(C[S+]([O-])c2nc3cc(OC(F)F)ccc3[nH]2)c1OC (centres undefined) [Pantoprazole sodium] | 1.48 ± 0.23 | 1.56 ± 0.23 | 0.801 ± 0.57 | 0.78 ± 0.12 | 0.808 ± 0.36 | 0.689 ± 0.17 |
| COc1ccc(C(=O)NCc2ccc(OCCN(C)C)cc2)cc1OC [Itopride hydrochloride] | 1.88 ± 0.4 | 1.02 ± 0.083 | 0.935 ± 0.24 | 0.836 ± 0.042 | 0.975 ± 0.16 | 1.19 ± 0.19 |
| CC(=O)OCC(=O)[C@@]1(O)CC[C@H]2[C@@H]3CCC4=CC(=O)CC[C@]4(C)[C@H]3[C@@H](O)C[C@@]21C [Cortisol 21-acetate] | 1.3 ± 0.18 | 1.19 ± 0.31 | 7.16 ± 0.35 | 3.89 ± 0.89 | 1.8 ± 0.27 | 1.78 ± 0.47 |
| COc1cc(CNC(=O)CCCC/C=C\C(C)C)ccc1O [Zucapsaicin] | 0.845 ± 0.11 | 1.55 ± 0.81 | 0.571 ± 0.3 | 0.62 ± 0.26 | 1.09 ± 0.33 | 0.621 ± 0.1 |
| O=C(O)c1cc(-c2ccc(F)cc2F)ccc1O [Diflunisal] | 1.11 ± 0.14 | 1.11 ± 0.14 | 1.04 ± 0.17 | 0.915 ± 0.064 | 0.835 ± 0.11 | 1.27 ± 0.22 |
| COc1cc(NC(C)CCCN)c2ncccc2c1 (centres undefined) [Primaquine diphosphate] | 0.134 ± 0.1 | 0.193 ± 0.019 | 0.00687 ± 0.0013 | 0.000954 ± 0.00068 | 0.729 ± 0.25 | 1.05 ± 0.65 |
| CC1=C(/C=C/C(C)=C/C=C/C(C)=C/C(=O)O)C(C)(C)CCC1 [trans-Retinoic acid] | 0.864 ± 0.0095 | 1.11 ± 0.2 | 0.531 ± 0.22 | 0.737 ± 0.26 | 0.337 ± 0.26 | 0.888 ± 0.19 |
| CC1(C)O[C@@H]2[C@@H](CO[C@@]3(COS(N)(=O)=O)OC(C)(C)O[C@@H]23)O1 [Topiramate] | 1.31 ± 0.18 | 1.33 ± 0.16 | 1.63 ± 0.8 | 1.04 ± 0.2 | 0.936 ± 0.2 | 1.01 ± 0.016 |
| CCCCC[C@H](O)/C=C/[C@H]1[C@H](O)CC(=O)[C@@H]1CCCCCCC(=O)O [Prostaglandin E1] | 1.28 ± 0.064 | 1.64 ± 0.1 | 4.69 ± 0.64 | 2.31 ± 0.8 | 1.09 ± 0.23 | 1.05 ± 0.14 |
| CCN(CC)CCOc1ccc(C(=C(Cl)c2ccccc2)c2ccccc2)cc1 [Clomifene citrate] | 0.0627 ± 0.034 | 0.106 ± 0.071 | 0.00379 ± 0.0021 | 0.000956 ± 0.00022 | 0.694 ± 0.5 | 0 |
| CC(C)(C)NC(=O)[C@H]1CC[C@H]2[C@@H]3CC[C@H]4NC(=O)C=C[C@]4(C)[C@H]3CC[C@]12C [Finasteride] | 1.25 ± 0.27 | 1.52 ± 0.18 | 0.557 ± 0.18 | 0.743 ± 0.047 | 1.1 ± 0.23 | 0.77 ± 0.057 |
| OCCN1CCN(CCCN2c3ccccc3Sc3ccc(C(F)(F)F)cc32)CC1 [Fluphenazine dihydrochloride] | 0.0753 ± 0.048 | 0.0733 ± 0.033 | 0.028 ± 0.021 | 0.000491 ± 5.8e-05 | 1.45 ± 1.5 | 0.0415 ± 0.072 |
| CCCCCCCCCCC[C@@H](C[C@@H]1OC(=O)[C@H]1CCCCCC)OC(=O)[C@H](CC(C)C)NC=O [Orlistat] | 1.81 ± 0.16 | 1.28 ± 0.062 | 0.389 ± 0.27 | 0.293 ± 0.064 | 0.606 ± 0.093 | 0.331 ± 0.058 |
| C[C@@H]1C[C@H]2[C@@H]3CCC4=CC(=O)C=C[C@]4(C)[C@@]3(F)[C@@H](O)C[C@]2(C)[C@@]1(O)C(=O)CO [Dexamethasone] | 1.36 ± 0.3 | 1.31 ± 0.077 | 28.2 ± 3.1 | 5.58 ± 1 | 2.06 ± 0.33 | 1.93 ± 0.29 |
| O=c1[nH]cc(F)c(=O)[nH]1 [5-Fluorouracil] | 0.982 ± 0.086 | 0.627 ± 0.056 | 1.12 ± 0.63 | 1.13 ± 0.14 | 0.703 ± 0.14 | 1.55 ± 0.42 |
| CC(=O)S[C@@H]1CC2=CC(=O)CC[C@]2(C)[C@H]2CC[C@@]3(C)[C@@H](CC[C@@]34CCC(=O)O4)[C@H]12 [Spironolactone] | 1.39 ± 0.06 | 0.559 ± 0.044 | 0.43 ± 0.23 | 0.238 ± 0.036 | 0.849 ± 0.3 | 0.546 ± 0.064 |
| COc1ccccc1OCC(O)CN1CCN(CC(=O)Nc2c(C)cccc2C)CC1 (centres undefined) [Ranolazine dihydrochloride] | 1.82 ± 0.26 | 1.13 ± 0.059 | 0.786 ± 0.054 | 0.698 ± 0.012 | 1.09 ± 0.12 | 0.851 ± 0.054 |
| Nc1ccc(S(=O)(=O)c2ccc(N)cc2)cc1 [Dapsone] | 1.08 ± 0.058 | 0.98 ± 0.16 | 8.68 ± 1.3 | 2.88 ± 0.18 | 2.83 ± 0.19 | 2.01 ± 0.4 |
